# Laboratory results taken from PubChem BioAssay AID686979 (National Center for Advancing Translational Sciences (NCATS), 2013).
# “And” between values parts separate entries of the source, which are not always exact repeats. Identical values can stand only once. Out of some 420,000 compounds screened, about 50,000 (12%) were called active. This list was built around the results that the source calls inconclusive (neither active nor inactive); the mix of calls is not that of the screen. Calls come from the whole dose curve; as a rule, active = well fitted inhibition curve with a large enough effect; inconclusive = small, poorly fitted or top-dose-only effect; inactive = flat fitted curve, though single readings scatter. No potency is given beside an inconclusive call; the fits are too rough.
# Test: qHTS for Inhibitors of human tyrosyl-DNA phosphodiesterase 1 (TDP1): qHTS in cells in presence of CPT; note: nearly all actives have a fitted effect of over 55% in size
# Conditions: chicken DT40 Tdp1-/-;hTDP1 cells + 20 nM CPT, ATP luminescence, 48 h; activity change, negative = growth inhibition: at 46.2 µM (top of the series)
# Method in brief: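 Chicken DT40 Tdp1-/- cells stably complemented with human TDP1 were seeded at 400 cells/well in medium containing 20 nM camptothecin, exposed to pin-transferred compounds, and grown at 37 °C for at least 48 hr. Viability was read as ATP luminescence.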
# % is set by controls: 0 for no effect and ±100 for the full control effect; potency is the fitted concentration of half-maximal effect; tags give direction and shape of the fitted curve.
Compound,"activity change, negative = growth inhibition",Potency
O=c1[nH]c(SCc2cccc(Cl)c2)nc2[nH]ncc12,inconclusive: -33% [inhibitor],–
C=CCN1C(=O)C(CC(=O)Nc2ccc(OCCC)cc2)N(CCCN2CCN(Cc3ccccc3)CC2)C1=S (stereo not drawn),–,active: 23.1 µM
COc1ccc(-c2nc3cnc(N4CCOCC4)nc3n(-c3ccc(OC)cc3)c2=O)cc1,–,"inconclusive [inhibitor, single point]"
O=C(/C=C/c1ccccc1)OCc1ccccc1,–,"inconclusive [inhibitor, single point]"
COc1ccc(Nc2cc(C(=O)NCCCN3CCOCC3)c3ccccc3n2)cc1,–,"inconclusive [inhibitor, single point]"
Nc1ccn([C@@H]2O[C@H](CO)[C@@H](O)[C@H]2O)c(=O)n1,–,inactive
COc1ccc(CC(=O)NCc2nn(-c3ccccc3)nc2C)cc1OC,inactive: -17.4%,–
CCCCc1nc(N2CCOCC2)c(C#N)c2c1COC(C)(C)C2,–,"inconclusive [inhibitor, single point]"
CCOC(=O)C1(C)CCN1C(=O)c1cc(F)ccc1C (stereo not drawn),–,"inconclusive [inhibitor, single point]"
O=C(CCCC(=O)NN=Cc1ccccc1Cl)NN=Cc1ccccc1Cl,–,active: 16.4 µM
C=CCn1c(SCc2nc3ccccc3[nH]2)nnc1-c1cccc(OC)c1,–,"inconclusive [inhibitor, single point]"
CCCCNC(=O)C1C(c2ccc(OC)cc2)=Nc2ccccc2N1C(=O)Cc1cc(OC)cc(OC)c1 (stereo not drawn),–,"inconclusive [inhibitor, partial curve]"
CCOC(=O)C1=C(C)NC(C)=C(C(=O)OCC)C1c1ccc([N+](=O)[O-])s1,–,active: 16.4 µM and active: 14.6 µM
CCOc1ccc(NC(=O)CN(C)C(=O)c2ccc(-c3ccc(C(C)=O)cc3)o2)cc1OCC,inactive: -6.52%,–
CCCn1c(SCC(=O)Nc2ccccc2CC)nnc1C(C)C,–,active: 20.6 µM
COc1cc(OC)cc(C(=O)NCc2ccc(-n3cccc3)cc2)c1,–,active: 18.4 µM
CSc1ccc(/C=N/NC(=O)c2cccc(O)c2)cc1,–,"inconclusive [inhibitor, single point]"
CCCCNC(=O)CN1CCN(c2ncc(NC(=O)c3ccc(Cl)cc3)cc2C(=O)O)CC1,inactive: -1.29%,–
COc1cc(NC(=O)C2CCN(c3nc4ccccc4nc3C(F)(F)F)CC2)cc(OC)c1,–,active: 16.4 µM
Cc1c(O)ccc2c1OC(C)(C)CC2,–,active: 5.62 µM
Cc1ccc(-c2nc(N/N=C/c3cccnc3)c3ccccc3n2)cc1,–,active: 23.1 µM
CCC(=O)N1c2ccc(C)cc2C2=NNC(=S)NC21O (stereo not drawn),–,"inconclusive [inhibitor, single point]"
Cc1ccc(S(=O)(=O)N2CCN(c3nc(-c4ncccn4)nc4ccccc34)CC2)cc1,–,"inconclusive [inhibitor, partial curve, poor fit]"
COc1cc(C2c3[nH]c4ccccc4c3C[C@H]3C(=O)N(CCO)CC(=O)N23)cc(OC)c1OC (stereo partly drawn),–,"inconclusive [inhibitor, single point]"

Compound,"activity change, negative = growth inhibition",Potency
COc1ccc(CN2CCC(c3nc4ccc(Cl)cc4[nH]3)CC2)cc1,–,"inconclusive [inhibitor, single point]"
CCOc1ccc(S(=O)(=O)N(CC)CC(=O)NCc2ccncc2)cc1,inactive: -7.13%,–
O=C(Nc1sc2c(c1C(=O)O)CCCCC2)c1cccs1,–,"inconclusive [inhibitor, single point]"
CC(Oc1ccccc1)C(=O)Nc1nc(-c2ccncc2)cs1 (stereo not drawn),inconclusive: -30.3% [inhibitor],–
Cc1ccsc1CN(C)C(=O)CN1C(=O)NC2(CCCCC2C)C1=O (stereo not drawn),inactive: -15.2%,–
NNc1nc2sc3c(c2c(=O)n1-c1ccccc1)CCCC3,–,active: 18.4 µM
CCCOc1cccc(C2c3c(oc4ccc(F)cc4c3=O)C(=O)N2c2nc(C)c(C(C)=O)s2)c1 (stereo not drawn),–,active: 13 µM
COc1ccc(NC2CCCN(C(=O)CSc3ccccc3)C2)cc1OC (stereo not drawn),–,"inconclusive [inhibitor, single point]"
COCCc1nn2c(=O)cc(COC(=O)c3ccc(Br)cc3)nc2s1,inactive: -5.83%,–
CCCCCC1C(=O)CCC1CC(=O)O (stereo not drawn),inactive: -1.14%,–
COc1ccccc1C(CNC(=O)c1ccc(OCc2c(C)noc2C)cc1)N1CCCC1 (stereo not drawn),–,"inconclusive [inhibitor, single point]"
Cn1c(Nc2ccc(F)cc2)nc2cc(-c3ccsc3)sc2c1=O,–,"inconclusive [inhibitor, single point]"
CN1CCN(C(CNC(=O)c2c(F)cccc2F)c2ccc3c(c2)OCO3)CC1 (stereo not drawn),inactive: 4.48%,–
CC(=O)N1N=C(c2ccccc2)CC1c1ccccc1 (stereo not drawn),inactive: -27.7%,–
Cc1cccc(NS(=O)(=O)c2cc(C(=O)OC(C)C(=O)NCc3ccc4c(c3)OCO4)ccc2C)c1 (stereo not drawn),–,active: 18.4 µM
CCCCCCn1ccc(=N)cc1,–,active: 0.206 µM
CC(C)NC(=O)c1sc(=S)n2c1[nH]c(=O)c1ccc(C(=O)NCCc3ccc(Cl)cc3)cc12,–,"inconclusive [inhibitor, single point]"
CCOc1ccc(-c2nc(C#N)c(N3CCN(CC)CC3)o2)cc1,–,"inconclusive [inhibitor, single point]"
NCCc1nnc(SCc2ccccc2F)o1,–,"inconclusive [inhibitor, single point]"
O=C1CCC/C1=C\Nc1ccc(Cl)c([N+](=O)[O-])c1,–,"inconclusive [inhibitor, single point]"
COc1ccc(-c2ccc(-c3cc(=O)oc4cc(OC)c(OC)c(OC)c34)cc2)cc1,inactive: -1.03%,–
Cc1ccc2cc(C(c3nnnn3Cc3ccccc3)N3CCc4ccccc43)c(=O)[nH]c2c1 (stereo not drawn),–,"inconclusive [inhibitor, single point]"
COc1cc(OC)c(C(=O)N(CCc2ccccc2)Cc2ccccc2)cc1OC,–,"inconclusive [inhibitor, single point]"
COc1ccccc1OCCOc1ccccc1/C=N/n1cnnc1,–,"inconclusive [inhibitor, single point]"
